The assay addresses BRD4 (BDII_E352-M457) (Homo sapiens, UniProt O60885). Kind of assay: TR-FRET bromodomain binding assay, BRD4 BDII.

Ki data for 24 compounds are collected here from patent US20210047304A1, “Bromodomain Inhibitors” (AbbVie Inc., priority 2016, published 2021).

As usually defined, the Ki is the equilibrium dissociation constant of an inhibitor or competing ligand from its target.

The structures appear in SMILES notation.

Compound `Cc1cc(F)cc(C)c1Oc1ccc(C(C)(C)O)cc1-c1cn(C)c(=O)cc1O[C@H]1CC[C@H](NC(=O)C2(C#N)CCC2)CC1` [Example 88, 1-cyano-N-[trans-4-({5-[2-(4-fluoro-2,6-dimethylphenoxy)-5-(2-hydroxypropan-2-yl)phenyl]-1-methyl-2-oxo-1,2-dihydropyridin-4-yl}oxy)cyclohexyl]cyclobutane-1-carboxamide] gave a Ki of 3.82 nM. This lies in the single-digit nanomolar range.
Turning to `CCNC(=O)[C@H]1C[C@@H](Oc2cc(=O)n(C)cc2-c2cc(C(C)(C)O)ccc2Oc2c(C)cc(F)cc2C)C1` [Example 95, cis-N-ethyl-3-({5-[2-(4-fluoro-2,6-dimethylphenoxy)-5-(2-hydroxypropan-2-yl)phenyl]-1-methyl-2-oxo-1,2-dihydropyridin-4-yl}oxy)cyclobutane-1-carboxamide], the Ki was 19 nM. This Ki is about 5-fold higher than that of the compound before.
`Cc1cc(F)cc(C)c1Oc1ccc(C(C)(C)O)cc1-c1cn(C)c(=O)cc1O[C@H]1CC[C@H](C(=O)N2CCCC2)CC1` [Example 62, 5-[2-(4-fluoro-2,6-dimethylphenoxy)-5-(2-hydroxypropan-2-yl)phenyl]-1-methyl-4-{[trans-4-(pyrrolidine-1-carbonyl)cyclohexyl]oxy}pyridin-2(1H)-one] gave a Ki of 15.4 nM. This Ki and that of the compound before are within 1.5-fold of each other.
In turn, `CC(=O)N(CCO)[C@H]1CC[C@H](Oc2cc(=O)n(C)cc2-c2cc(C(C)(C)O)ccc2Oc2c(C)cc(F)cc2C)CC1` [Example 54, N-[trans-4-({5-[2-(4-fluoro-2,6-dimethylphenoxy)-5-(2-hydroxypropan-2-yl)phenyl]-1-methyl-2-oxo-1,2-dihydropyridin-4-yl}oxy)cyclohexyl]-N-(2-hydroxyethyl)acetamide] displayed a Ki of 5.66 nM. This Ki is about 2.7-fold lower than that of the compound before.
Under `CC(=O)N[C@H]1CC[C@H](Oc2cc(=O)n(C)cc2-c2cc(C(C)(C)O)ccc2Oc2c(C)cc(C(C)(C)O)cc2C)CC1` [Example 18, N-{trans-4-[(5-{5-(2-hydroxypropan-2-yl)-2-[4-(2-hydroxypropan-2-yl)-2,6-dimethylphenoxy]phenyl}-1-methyl-2-oxo-1,2-dihydropyridin-4-yl)oxy]cyclohexyl}acetamide] stands 0.878 nM; under `Cc1cccc(C)c1Oc1ccc(CN(C)C(N)=O)cc1-c1cn(C)c(=O)cc1O[C@H]1CC[C@H](NC(=O)C2(C)CC2)CC1` [Example 115, N-[trans-4-({5-[5-{[carbamoyl(methyl)amino]methyl}-2-(2,6-dimethylphenoxy)phenyl]-1-methyl-2-oxo-1,2-dihydropyridin-4-yl}oxy)cyclohexyl]-1-methylcyclopropane-1-carboxamide], 2.54 nM.
Under `COC(=O)N[C@H]1CC[C@H](Oc2cc(=O)n(C)cc2-c2cc(C(C)(C)O)cnc2Oc2c(C)cc(C(C)(C)O)cc2C)CC1` [Example 25, methyl [trans-4-({5′-(2-hydroxypropan-2-yl)-2′-[4-(2-hydroxypropan-2-yl)-2,6-dimethylphenoxy]-1-methyl-6-oxo[1,6-dihydro[3,3′-bipyridine]]-4-yl}oxy)cyclohexyl]carbamate] stands 2.65 nM; under `Cc1cc(F)cc(C)c1Oc1ccc(C(C)(C)O)cc1-c1cn(C)c(=O)cc1O[C@H]1CC[C@H](N2NC(=O)CC2=O)CC1` [Example 121, 1-[trans-4-({5-[2-(4-fluoro-2,6-dimethylphenoxy)-5-(2-hydroxypropan-2-yl)phenyl]-1-methyl-2-oxo-1,2-dihydropyridin-4-yl}oxy)cyclohexyl]pyrazolidine-3,5-dione], 229 nM; under `Cc1cc(F)cc(C)c1Oc1ccc(C(C)(C)O)cc1-c1cn(C)c(=O)cc1O[C@H]1CC[C@H](N2C(=O)C3COCCN3C2=O)CC1` (relative stereo) [Example 126, 2-[trans-4-({5-[2-(4-fluoro-2,6-dimethylphenoxy)-5-(2-hydroxypropan-2-yl)phenyl]-1-methyl-2-oxo-1,2-dihydropyridin-4-yl}oxy)cyclohexyl]tetrahydro-1H-imidazo[5,1-c][1,4]oxazine-1,3(2H)-dione], 10.2 nM.
As for `C=CCCCC(=O)N[C@H]1CC[C@H](Oc2cc(=O)n(C)cc2-c2cc(C(C)(C)O)ccc2Oc2c(C)cc(F)cc2C)CC1` [Example 36, N-[trans-4-({5-[2-(4-fluoro-2,6-dimethylphenoxy)-5-(2-hydroxypropan-2-yl)phenyl]-1-methyl-2-oxo-1,2-dihydropyridin-4-yl}oxy)cyclohexyl]hex-5-enamide], the Ki came out at 3.31 nM.
Under `Cc1cc(F)cc(C)c1Oc1ccc(C(C)(C)O)cc1-c1cn(C)c(=O)cc1O[C@H]1CC[C@H](C(N)=O)CC1` [Example 102, trans-4-({5-[2-(4-fluoro-2,6-dimethylphenoxy)-5-(2-hydroxypropan-2-yl)phenyl]-1-methyl-2-oxo-1,2-dihydropyridin-4-yl}oxy)cyclohexane-1-carboxamide] stands 11.6 nM; under `COCC(C)(C)C(=O)N[C@H]1CC[C@H](Oc2cc(=O)n(C)cc2-c2cc(C(C)(C)O)ccc2Oc2c(C)cc(F)cc2C)CC1` [Example 71, N-[trans-4-({5-[2-(4-fluoro-2,6-dimethylphenoxy)-5-(2-hydroxypropan-2-yl)phenyl]-1-methyl-2-oxo-1,2-dihydropyridin-4-yl}oxy)cyclohexyl]-3-methoxy-2,2-dimethylpropanamide], 5.55 nM.
Turning to `Cc1cc(F)cc(C)c1Oc1ccc(C(C)(C)O)cc1-c1cn(C)c(=O)cc1O[C@H]1CC[C@H](N2CCCCC2=O)CC1` [Example 29, 5-[2-(4-fluoro-2,6-dimethylphenoxy)-5-(2-hydroxypropan-2-yl)phenyl]-1-methyl-4-{[trans-4-(2-oxopiperidin-1-yl)cyclohexyl]oxy}pyridin-2(1H)-one], the Ki was found to be 1.52 nM.
Under `Cc1cc(F)cc(C)c1Oc1ccc(C(C)(C)O)cc1-c1cn(C)c(=O)cc1O[C@H]1CC[C@H](N2CCNC2=O)CC1` [Example 35, 5-[2-(4-fluoro-2,6-dimethylphenoxy)-5-(2-hydroxypropan-2-yl)phenyl]-1-methyl-4-{[trans-4-(2-oxoimidazolidin-1-yl)cyclohexyl]oxy}pyridin-2(1H)-one] stands 0.933 nM.
Under `Cc1cc(F)cc(C)c1Oc1ccc(C(C)(C)O)cc1-c1cn(C)c(=O)cc1O[C@H]1CC[C@H](N2CC(C)(C)C2=O)CC1` [Example 30, 4-{[trans-4-(3,3-dimethyl-2-oxoazetidin-1-yl)cyclohexyl]oxy}-5-[2-(4-fluoro-2,6-dimethylphenoxy)-5-(2-hydroxypropan-2-yl)phenyl]-1-methylpyridin-2(1H)-one] stands 1.93 nM.
Under `CC(=O)NC1CCC(C)(Oc2cc(=O)n(C)cc2-c2cc(C(C)(C)O)ccc2Oc2c(C)cc(F)cc2C)CC1` (stereo not drawn) [Example 84, N-[trans-4-({5-[2-(4-fluoro-2,6-dimethylphenoxy)-5-(2-hydroxypropan-2-yl)phenyl]-1-methyl-2-oxo-1,2-dihydropyridin-4-yl}oxy)-4-methylcyclohexyl]acetamide] stands 368 nM; under `Cc1cc(F)cc(C)c1Oc1ccc(C(C)(C)O)cc1-c1cn(C)c(=O)cc1O[C@H]1CC[C@H](N2CCC(C)(C)C2=O)CC1` [Example 48, 4-{[trans-4-(3,3-dimethyl-2-oxopyrrolidin-1-yl)cyclohexyl]oxy}-5-[2-(4-fluoro-2,6-dimethylphenoxy)-5-(2-hydroxypropan-2-yl)phenyl]-1-methylpyridin-2(1H)-one], 8.48 nM; under `Cc1cc(F)cc(C)c1Oc1ccc(C(C)(C)O)cc1-c1cn(C)c(=O)cc1O[C@H]1CC[C@H](n2ncccc2=O)CC1` [Example 141, 2-[trans-4-({5-[2-(4-fluoro-2,6-dimethylphenoxy)-5-(2-hydroxypropan-2-yl)phenyl]-1-methyl-2-oxo-1,2-dihydropyridin-4-yl}oxy)cyclohexyl]pyridazin-3(2H)-one], 4.79 nM.
The compound `CC(=O)N(N)[C@H]1CC[C@H](Oc2cc(=O)n(C)cc2-c2cc(C(C)(C)O)ccc2Oc2c(C)cc(F)cc2C)CC1` [Example 98, N-[trans-4-({5-[2-(4-fluoro-2,6-dimethylphenoxy)-5-(2-hydroxypropan-2-yl)phenyl]-1-methyl-2-oxo-1,2-dihydropyridin-4-yl}oxy)cyclohexyl]acetohydrazide] came in with a Ki of 20.5 nM.
Under `Cc1cc(F)cc(C)c1Oc1ccc(C(C)(C)O)cc1-c1cn(C)c(=O)cc1O[C@H]1CC[C@H](NC(=O)C23CCC(CO)(CC2)CC3)CC1` (relative stereo) [Example 110, N-[trans-4-({5-[2-(4-fluoro-2,6-dimethylphenoxy)-5-(2-hydroxypropan-2-yl)phenyl]-1-methyl-2-oxo-1,2-dihydropyridin-4-yl}oxy)cyclohexyl]-4-(hydroxymethyl)bicyclo[2.2.2]octane-1-carboxamide] stands 4.43 nM.
Compound `Cc1cc(F)cc(C)c1Oc1ccc(C(C)(C)O)cc1-c1cn(C)c(=O)cc1O[C@H]1CC[C@H](NC(=O)CCC(C)(C)O)CC1` [Example 119, N-[trans-4-({5-[2-(4-fluoro-2,6-dimethylphenoxy)-5-(2-hydroxypropan-2-yl)phenyl]-1-methyl-2-oxo-1,2-dihydropyridin-4-yl}oxy)cyclohexyl]-4-hydroxy-4-methylpentanamide] had a Ki of 6.84 nM.
As for `Cc1cc(F)cc(C)c1Oc1ccc(C(C)(C)O)cc1-c1cn(C)c(=O)cc1O[C@H]1CC[C@H](C(=O)N(C)C)CC1` [Example 108, trans-4-({5-[2-(4-fluoro-2,6-dimethylphenoxy)-5-(2-hydroxypropan-2-yl)phenyl]-1-methyl-2-oxo-1,2-dihydropyridin-4-yl}oxy)-N,N-dimethylcyclohexane-1-carboxamide], the affinity, expressed as Ki, was 40.1 nM.
As for `CC(=O)N[C@H]1CC[C@H](Nc2cc(=O)n(C)cc2-c2cc(C(C)(C)O)ccc2Oc2c(C)cc(F)cc2C)CC1` [Example 19, N-[trans-4-({5-[2-(4-fluoro-2,6-dimethylphenoxy)-5-(2-hydroxypropan-2-yl)phenyl]-1-methyl-2-oxo-1,2-dihydropyridin-4-yl}amino)cyclohexyl]acetamide], the Ki came out at 3.52 nM.
Under `Cc1cc(F)cc(C)c1Oc1ccc(C(C)(C)O)cc1-c1cn(C)c(=O)cc1O[C@H]1CC[C@H](N2C(=O)[C@@H]3CCCN3C2=O)CC1` [Example 91, (7aS)-2-[trans-4-({5-[2-(4-fluoro-2,6-dimethylphenoxy)-5-(2-hydroxypropan-2-yl)phenyl]-1-methyl-2-oxo-1,2-dihydropyridin-4-yl}oxy)cyclohexyl]tetrahydro-1H-pyrrolo[1,2-c]imidazole-1,3(2H)-dione] stands 1.75 nM.
